These results are taken from ChEMBL document CHEMBL5606460, “ASAP - DENV-2 NS2B-NS3 protease fluorescence single point” (2024).

The campaign covered roughly 2,000 compounds. About 110 (5.5%) showed an effect of 50% or more. This is one part of the list.

The experiment concerns the target Genome polyprotein (dengue virus type 2) (UniProt P29990).
The mark [1] stands for this setting: Thailand/16681/1984, Concentration 25.0 uM, Number of replicates 1.0.

For `CC(C)(CO)NC(=O)c1cc(Cl)cc(NC(=O)c2ccc3c(c2)NC(=O)CS3)c1`, the inhibition turned out to be 0.133% (Thailand/16681/1984, Concentration 49.5 uM, Number of replicates 2.0, Standard deviation 3.127876605906029 %); 1.68% (Thailand/16681/1984, Concentration 99.01 uM, Number of replicates 2.0, Standard deviation 1.5601810799956624 %); 4.28% (Thailand/16681/1984, Concentration 198.0 uM, Number of replicates 2.0, Standard deviation 0.7495631561529056 %). As for `COC(=O)[C@@H](C)NC(=O)c1cc(OC)nc(N2CCNCC2)n1`, the inhibition is, setting by setting: (Thailand/16681/1984, Concentration 49.5 uM, Number of replicates 2.0, Standard deviation 5.1438793085885886 %) -2.56%; (Thailand/16681/1984, Concentration 99.01 uM, Number of replicates 2.0, Standard deviation 4.148622532034276 %) -1.91%; (Thailand/16681/1984, Concentration 198.0 uM, Number of replicates 2.0, Standard deviation 4.004748448377244 %) 1.1%.

Take `COc1cc(C(=O)NCC2CC2)nc(N2CCNCC2)n1`: the inhibition reads like this: (Thailand/16681/1984, Concentration 49.5 uM, Number of replicates 2.0, Standard deviation 2.873868444891211 %) -2.45%; (Thailand/16681/1984, Concentration 99.01 uM, Number of replicates 2.0, Standard deviation 2.6541901985408196 %) -0.334%; (Thailand/16681/1984, Concentration 198.0 uM, Number of replicates 2.0, Standard deviation 1.9095524495454428 %) 1.94%. `O=C1Nc2ccccc2C[C@]12CCCN2`: the inhibition was -9.22% (Thailand/16681/1984, Concentration 49.8 uM, Number of replicates 2.0, Standard deviation 1.0431419184899653 %) and -6.1% (Thailand/16681/1984, Concentration 99.5 uM, Number of replicates 2.0, Standard deviation 1.491980229847092 %). With `COc1ccc([C@H](C)NC(=O)C2CCN(c3ccc(C=O)cc3)CC2)cc1`, the inhibition under setting [1] was 12.5%. Same read-out and setting: to `O=Cc1ccc(N2CCC(C(=O)NCc3cccc(OC(F)F)c3)CC2)cc1` belongs 13%. Consider `COc1cc2c(cc1OC)CN(C(=O)C1CCN(c3ccc(C=O)cc3)CC1)CC2`, for which the inhibition under setting [1] turned out to be 13.9%. As for `CCOC(=O)c1cc(Cn2cc(C3CCNCC3)c(C)n2)on1`, the inhibition is, setting by setting: (Thailand/16681/1984, Concentration 49.5 uM, Number of replicates 2.0, Standard deviation 0.6961838774859187 %) -0.36%; (Thailand/16681/1984, Concentration 99.01 uM, Number of replicates 2.0, Standard deviation 1.502887560287196 %) -0.752%; (Thailand/16681/1984, Concentration 198.0 uM, Number of replicates 2.0, Standard deviation 1.2379119200110926 %) 0.781%. As to `O=Cc1ccc(N2CCC(C(=O)NCc3ccsc3Br)CC2)cc1`, the inhibition under setting [1] stood at 10.2%. The same measure, in the same setting: to `COc1ccc(NC(=O)C2CCN(c3ccc(C=O)cc3)CC2)c([N+](=O)[O-])c1` belongs 14.5%. Consider `Cc1c(C(=O)NCC(F)(F)c2n[nH]c3c2COCC3)ccc(O)c1NC(=O)c1ccncc1F`, for which the inhibition is -0.897% (Thailand/16681/1984, Concentration 49.5 uM, Number of replicates 2.0, Standard deviation 0.9671482846391245 %); 0.173% (Thailand/16681/1984, Concentration 99.01 uM, Number of replicates 2.0, Standard deviation 0.6988285711565531 %); 2.02% (Thailand/16681/1984, Concentration 198.0 uM, Number of replicates 2.0, Standard deviation 0.7129792701769644 %). As for `COc1ccccc1N1CCN(CCCNC(=O)C2CCN(c3ccc(C=O)cc3)CC2)CC1`, the inhibition under setting [1] was 15.3%. Consider `O=Cc1ccc(N2CCC(C(=O)NCC3(N4CCOCC4)CCCCC3)CC2)cc1`, for which the inhibition under setting [1] stood at 13%. With `Cc1cc(CO)c2cccc(NC(=O)Cc3csc(Cc4ccccc4)n3)c2n1`, the inhibition runs as follows: (Thailand/16681/1984, Concentration 49.95 uM, Number of replicates 2.0, Standard deviation 3.352344146166683 %) 22.2%; (Thailand/16681/1984, Concentration 99.9 uM, Number of replicates 2.0, Standard deviation 10.05500534367407 %) 35.6%.

In the case of `COc1cc(NC(=O)C2CCN(c3ccc(C=O)cc3)CC2)ccc1Br`, under setting [1], the inhibition amounted to 12.2%. On to `O=Cc1ccc(N2CCC(C(=O)Nc3cccc(Cl)c3Br)CC2)cc1`, for which the inhibition under setting [1] worked out at 12.5%.

As for `Cc1cc(CO)c2cccc(Cc3ccccc3NC(=O)c3cc(C(=O)O)[nH]n3)c2n1`, the inhibition was 2.16% (Thailand/16681/1984, Concentration 49.95 uM, Number of replicates 2.0, Standard deviation 1.2109368674878396 %) and 10.9% (Thailand/16681/1984, Concentration 99.9 uM, Number of replicates 2.0, Standard deviation 1.1250841585396334 %). Consider `Cc1cccc(N2CCN(C(=O)C3CCN(c4ccc(C=O)cc4)CC3)CC2)n1`, for which the inhibition under setting [1] was 16.5%. Same read-out and setting: to `O=Cc1ccc(N2CCC(C(=O)Nc3cccc4c(=O)[nH][nH]c(=O)c34)CC2)cc1` belongs 16%. On to `N#Cc1cccc(-c2nc3c(C(=O)Nc4ccncc4)cc(Cl)cc3[nH]2)c1`, for which the inhibition runs as follows: (Thailand/16681/1984, Concentration 99.5 uM, Number of replicates 2.0, Standard deviation 0.8007493235576281 %) 6.92%; (Thailand/16681/1984, Concentration 295.6 uM, Number of replicates 2.0, Standard deviation 3.318711635404566 %) 36.2%. As for `C[C@H](NC(=O)C1CCN(c2ccc(C=O)cc2)CC1)c1ccc2c(c1)OCCCO2`, under setting [1], the inhibition was determined as 14%. On the same count and under the same terms, the same measure for `N#Cc1c(Cl)cccc1NC(=O)C1CCN(c2ccc(C=O)cc2)CC1`: 14.4%. Regarding `CCn1ccnc(N2CC[C@H](C#N)C2)c1=O`, the inhibition worked out at 7.72% (Thailand/16681/1984, Concentration 50.0 uM, Number of replicates 2.0, Standard deviation 0.9992596313447866 %); 16.8% (Thailand/16681/1984, Concentration 100.0 uM, Number of replicates 2.0, Standard deviation 0.8098574261082263 %); 29.7% (Thailand/16681/1984, Concentration 200.0 uM, Number of replicates 2.0, Standard deviation 0.40329611273019517 %). On to `Cc1cc(N)c2cccc(Cl)c2n1`, for which the inhibition is, setting by setting: (Thailand/16681/1984, Concentration 49.95 uM, Number of replicates 2.0, Standard deviation 5.503288371579723 %) -4.7%; (Thailand/16681/1984, Concentration 99.9 uM, Number of replicates 2.0, Standard deviation 6.432020014535411 %) -3.67%.

`O=Cc1ccc(N2CCC(C(=O)N3C[C@@H]4C[C@H](C3)c3cccc(=O)n3C4)CC2)cc1`: under setting [1], the inhibition was 12.4%. Still for that read-out and setting: the same measure for `CCc1cc(Br)ccc1NC(=O)C1CCN(c2ccc(C=O)cc2)CC1`: 14.5%.
